Data: paper PMC12136788
The list shows a part of the results.

T1: UNK ZnF1-3 (human, UniProt Q9C0B0 31-174)
T1 sequence: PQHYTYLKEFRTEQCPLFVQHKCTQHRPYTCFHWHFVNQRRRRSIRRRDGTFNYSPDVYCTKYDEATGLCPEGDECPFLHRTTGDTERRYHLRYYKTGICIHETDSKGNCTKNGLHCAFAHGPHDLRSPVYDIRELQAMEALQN

B1: 39991170_39991290_1122_CDS_ENSG00000065883_ENST00000340829|human|control|control (ssRNA)
RNA: GGGAGUUCUACAGUCCGACGAUCGGGGCUGCUGCCACCUCCUGCCGGGCUGGGGGACUUGCGGCUCCUCAGGCUCUGAGAGGCCCUGUGGGACACCGGGCUGUCGUCCCGGCCUCCCAGUGGGCUGAGGGACCGCCGCCGCCUCAACAGAGGAUUGAGCAUCA
B2: chr17:56739783:56739784:+_ENSMUSG00000071054_ENSMUST00000095224|mus_hu|motif|central (ssRNA)
RNA: GGGAGUUCUACAGUCCGACGAUCAUAUUUGCUGAAAAGAUUCUUCAAAUCUGUAGCUCUGGUUGUAGAAGAGAGUCCACGGACCCAGAAAUUUCUACCACAACUGCUGCGACCCUUUUCCUCUUUGGAAAGCCUUUUUGUAUCCAACAGAGGAUUGAGCAUCA
B3: 436118_440354_2135_3pUTR_ENSG00000141252_ENST00000437048|human|control|control (ssRNA)
RNA: GGGAGUUCUACAGUCCGACGAUCAAGAGGUGGGUGAUGAAUUUGGGAAUGAAGGAGUUUGCAAAUUUAACGCAGAACUGAGUGAAGUACUUGCGUGUGGAAGCCAGGUUGUCACGGAUGAUGGGGACGUUCUGCUUGAUGUGCCAACAGAGGAUUGAGCAUCA
B4: chr8:71331417:71331418:+_ENSMUSG00000031864_ENSMUST00000110241|mus_hu|motif|central (ssRNA)
RNA: GGGAGUUCUACAGUCCGACGAUCGACCAGCAUGGUGGAAUACACCACUUGGUUUUUAUAUUUUGCAUGUGCUUCACGGUCAAAGUUGUUCAUGUAUCUGCAGAGAUCCUUCAUUCUAUGCAAAAUAUCUCCAUAGCUUCGUCUCAACAGAGGAUUGAGCAUCA
B5: chr12:48362563:48362564:+_ENSG00000134291_ENST00000256686|hu_hu|hu_hu_hu_mus_False|28_38 (ssRNA)
RNA: GGGAGUUCUACAGUCCGACGAUCUCCGUCAAGCCCUUCGAUAGACCCUUGCGGGGGAAACUGUAAUCACUUUGUAUGGGGAAGGAAAAGAAACGCCAACACACUUUUUUCUUUCUUGGGUGGGGUGAGGCGGGAGGGGGAGGUCAACAGAGGAUUGAGCAUCA
B6: chr17:64801638:64801639:+_ENSG00000154229_ENST00000413366|hu_mus|hu_hu_hu_mus_False|18_28 (ssRNA)
RNA: GGGAGUUCUACAGUCCGACGAUCUAUAUAUAUAUAUACAUAUGUACACAUAUAUAGUAAAACCCUAGUUAAACGUGUAAAGUAGCCAUUCAUUUUUAAAAUUACAUCUACAUUUAAAAAGUAAUCUAUCUGAUAGAGUGCCAGCAACAGAGGAUUGAGCAUCA
B7: chr15:75216061:75216062:-_ENSG00000178741_ENST00000564811|perfect_dup|FALSE|FALSE (ssRNA)
RNA: GGGAGUUCUACAGUCCGACGAUCUUUGUCAAGGCCCAGCUCCUCUGGAGUGGAGAUUCCCAAUUCAUUUAAAGUUGGUCUAAGUUCCUGGAUGACAUAGGGAUAGAUUUCCUUAUGAGGUCCUGCUUUGUCCUUAACAACCUCCAACAGAGGAUUGAGCAUCA
B8: chr1:23883277:23883278:-_ENSMUSG00000026155_ENSMUST00000027339|mus_hu|motif|central (ssRNA)
RNA: GGGAGUUCUACAGUCCGACGAUCCUCCUUUUCUCUCUUUUUCUCUUCCUUUUUUUUUUCCUUUUCUUUAUUUGUAAUAGCGGUGGCAUUUUUAUCGUAGUAUUUCUUCUUUUCAUAUUUAUCUCUGAUGAAAAAUUCCACUGCCAACAGAGGAUUGAGCAUCA
B9: chr22:18299541:18299542:-_ENSG00000243156_ENST00000441493|hu_mus|FALSE|FALSE (ssRNA)
RNA: GGGAGUUCUACAGUCCGACGAUCAAGGAUGUCAUCACUGGACAGGUCUGAGUCCUCUGAGAAACUCAGCUGGCGGCGGAGCUGCAGCUCUGCUCUCACCAUUGGAGACGCCCUGCGCUGGCCGGAGUCCACCGUGGCGCCACUCAACAGAGGAUUGAGCAUCA
B10: chr12:114378518:114378519:+_ENSMUSG00000006356_ENSMUST00000084882|mus_mus|motif|central (ssRNA)
RNA: GGGAGUUCUACAGUCCGACGAUCCCCGGAGUGAGGUGGCGUCCACAGGGAUCGCCCGAGGAUUCCAUGGCCACAUAGUGAUCUCGGGCUGUAGAACGGACUUGGGAUCCCCAGCUUUAGGUCUCGAGGUCCGGGCCUGCUCGUCAACAGAGGAUUGAGCAUCA
B11: chr4:95690885:95690886:+_ENSMUSG00000028572_ENSMUST00000156910|mus_mus|mus_mus_mus_hu_False|8_28 (ssRNA)
RNA: GGGAGUUCUACAGUCCGACGAUCUUUAGAAAAUGUUAAAUACCAUGCUAAAAUAUUUUCAAAGGCUUAUUUUAUUUUACCAGAAGUCACAGGCAAGCAGACACUACAAACAUACAAGAAAAUGAAACAACAGUGUAUAACUGUCAACAGAGGAUUGAGCAUCA
B12: chr16:57153313:57153314:+_ENSMUSG00000022752_ENSMUST00000166897|mus_hu|FALSE|FALSE (ssRNA)
RNA: GGGAGUUCUACAGUCCGACGAUCUUUCAAAAAAUCAACUGAAAGCGGUUAACUGAAUAUAAAUCUAUUUUACAGCAUUUACUACGUUAAUUUAAAAAUCAACAUGCUGUAAAAUACUUACAUUAUUCACACAUAUAUAGACGGCAACAGAGGAUUGAGCAUCA
B13: chr9:14812383:14812384:-_ENSMUSG00000031934_ENSMUST00000164273|mus_mus|mus_mus_mus_hu_True|88_88 (ssRNA)
RNA: GGGAGUUCUACAGUCCGACGAUCAUAGCCCAGGUAGAUACACGCUAACAGUAUAACGAUGAGUGUCAGCAGGCGGCAGCUAAUGUACUUGAUGAUUAAAUUAUUAGAAUUUUUCUUUGUCUUCAAGUACUGCUCCACAAUUGGCAACAGAGGAUUGAGCAUCA
B14: chr2:220084271:220084272:-_ENSG00000198925_ENST00000396761|hu_mus|motif|central (ssRNA)
RNA: GGGAGUUCUACAGUCCGACGAUCGGAAGGGAGUGCAGGAAGGGUAGGAGCUGGAUCCCAGCAUGCAAUGUCGAAGCCCGGGGCGGGGGUGAGUCCAUUAUCCCUCCAUUCUCCUCUUGGUAAGUGAGGGAUACUGGGCAGAGCCAACAGAGGAUUGAGCAUCA
B15: chr4:25749455:25749456:-_ENSG00000091490_ENST00000264868|hu_hu|hu_hu_hu_mus_False|58_68 (ssRNA)
RNA: GGGAGUUCUACAGUCCGACGAUCGCACUAUGACCUCUAGAAAAAUCCACAGGGGGAAAAAAUGUAAACCAAUUUACAAAGCUAUUGCCUUCCCUGUGUGUGGAGUGUUUGUCUCAAGGCUCCUUCUAGCUGCUGGAUUUGGGACAACAGAGGAUUGAGCAUCA
B16: 184041735_184042078_2385_CDS_ENSG00000114867_ENST00000411531|human|control|control (ssRNA)
RNA: GGGAGUUCUACAGUCCGACGAUCGUCUUUCUCAAACUCCUUCUGACAUCGAUUCAACAACAGCUUUCGGAAGUUCACAGUCACUGUUGGCUUUUCCGUAGUGGGCACUUUCAGCGCCAUGAGGCAGCGGCACAUGUUGGCAUACAACAGAGGAUUGAGCAUCA
B17: chr2:207631934:207631935:+_ENSG00000118246_ENST00000403094|hu_mus|FALSE|FALSE (ssRNA)
RNA: GGGAGUUCUACAGUCCGACGAUCCUCUUGUCUUCAGAUAUCCUUUUGGCAAUUAUCCACAUUGCUAAGAAAUAGUUACUACCAGGAAAUGUAGGUGCUUUUGAAAAUGUGUCCAGCACAUCACUCAGAGAGUUACACUCCUGGCAACAGAGGAUUGAGCAUCA
B18: chr19:21355511:21355512:+_ENSMUSG00000024750_ENSMUST00000025659|mus_hu|FALSE|FALSE (ssRNA)
RNA: GGGAGUUCUACAGUCCGACGAUCCAUUUCUUCCUGCUUCCAAAGAAUAUGUUGUGAAAUUAAAGAGGGUGAAGUUUAACUAUGGUAGAAGUAGACUGCCAGUCCUUUUCUGGUGUACCAUUUUAAAAAAAUACAGGCACAUAACAACAGAGGAUUGAGCAUCA
B19: 79837943_79842774_1736_3pUTR_ENSG00000067715_ENST00000261205|human|control|control (ssRNA)
RNA: GGGAGUUCUACAGUCCGACGAUCCCCACAAAGACUUUGCCGAUGGCAUCGUUCUUGCCAAUCUUGUCAUAGUCCAAAACAGUUACCACCACCUGCACUUUCUGGAUUUGUUCAAAAGGUACUUCAAAGCUGAAUGACUCAUUGCAACAGAGGAUUGAGCAUCA
B20: chr7:151048522:151048523:+_ENSG00000013374_ENST00000566856|hu_mus|hu_hu_hu_mus_True|78_88 (ssRNA)
RNA: GGGAGUUCUACAGUCCGACGAUCCUGUUUCUUAUUUAUUACGAUCUUGAUAUAAUUUUCUUGAAGUCCGAAAGUUUCAGCUAUUUGACACCUCAGGUCUCUACCAGUGACAUGCAAGCGGGUCUCCAACAAGCUUUUCUUAUCCAACAGAGGAUUGAGCAUCA
B21: 180261287_180261494_1942_CDS_ENSMUSG00000039630_ENSMUST00000037748|mouse|control|control (ssRNA)
RNA: GGGAGUUCUACAGUCCGACGAUCCCUCUGCUUAUAGUCUUCAUCUUUUGGGCACACUACAACAGCUUUCCGCUGGAAGCCUGCAAACAGGCACAUUUUUCUUCUCUGGGCAGCAGCAGACACAUUUGUCUGAUCCAGAAUAAACAACAGAGGAUUGAGCAUCA
B22: chr14:67421766:67421767:-_ENSMUSG00000022048_ENSMUST00000022629|mus_hu|FALSE|FALSE (ssRNA)
RNA: GGGAGUUCUACAGUCCGACGAUCACAUUUUGCUUUAUUAGGCGUUCCAUGGUAAUAUAACACAGAGUUCUUAAGGAAUAAUAAACACGAGACUUGUUUUUUACCAUAAUUAUUUUGCCAUCAAGACAGUGGUUACAAAAAAAACAACAGAGGAUUGAGCAUCA

What follows are binders tested against T1, UNK ZnF1-3 (assay: nsRBNS (natural sequence RNA bind-n-seq); RBNS binding buffer (assumed for nsRBNS): 25 mM Tris pH 7.5, 150 mM KCl, 3 mM MgCl2, 0.01% Triton X-100, 500 ug/ml BSA, 20 U/ml SUPERase-In, 4 C; UNK is unkempt and MSI1 is Musashi-1; names of the RNAs are library labels; protein concentration not given here; high values mean tight binding).
In the case of B1, the binding signal is reported as 0.488 enrichment R.
With B2 the binding signal was 0.655 enrichment R.
Work on B3 yielded a binding signal of 1.58 enrichment R.
Work on B4 yielded a binding signal of 0.681 enrichment R.
In the case of B5, the binding signal is reported as 1.73 enrichment R.
With B6 the binding signal was 1.14 enrichment R.
B7 was tested, and the binding signal was 0.551 enrichment R.
B8 gave a binding signal of 0.223 enrichment R.
Binder B9 has a binding signal of 0.853 enrichment R.
With B10 the binding signal was 0.5 enrichment R.
Binder B11 has a binding signal of 1.74 enrichment R.
In the case of B12, the binding signal is reported as 0.603 enrichment R.
B13 was tested, and the binding signal was 1.57 enrichment R.
Binder B14 has a binding signal of 1.06 enrichment R.
Work on B15 yielded a binding signal of 1.23 enrichment R.
B16 gave a binding signal of 0.887 enrichment R.
B17 showed a binding signal of 1.08 enrichment R.
B18 was tested, and the binding signal was 0.947 enrichment R.
With B19 the binding signal was 0.964 enrichment R.
Binder B20 has a binding signal of 0.914 enrichment R.
B21 gave a binding signal of 1.03 enrichment R.
Work on B22 yielded a binding signal of 0.959 enrichment R.
